Laboratory results published in PubChem BioAssay AID624417 (National Center for Advancing Translational Sciences (NCATS), 2012).
“And” between values parts separate entries of the source, which are not always exact repeats. Equal entries are not always repeated. In all, about 410,000 compounds went through this assay and about 6,400 (1.6%) were called active. Inconclusive means that the source gave no clear call. Such entries were picked first, then a sample of the others. Calls follow the shape of the dose curve; as a rule, active = well fitted inhibition curve with a large enough effect; inconclusive = small, poorly fitted or top-dose-only effect; inactive = no such curve, though single readings can be large or run the other way. Where the call is inconclusive, the potency comes from a doubtful curve fit.

Biological target: Glucagon-like peptide 1 receptor (Homo sapiens) (UniProt P43220)
UniProt P43220, sequence (P43220 whole entry, looked up): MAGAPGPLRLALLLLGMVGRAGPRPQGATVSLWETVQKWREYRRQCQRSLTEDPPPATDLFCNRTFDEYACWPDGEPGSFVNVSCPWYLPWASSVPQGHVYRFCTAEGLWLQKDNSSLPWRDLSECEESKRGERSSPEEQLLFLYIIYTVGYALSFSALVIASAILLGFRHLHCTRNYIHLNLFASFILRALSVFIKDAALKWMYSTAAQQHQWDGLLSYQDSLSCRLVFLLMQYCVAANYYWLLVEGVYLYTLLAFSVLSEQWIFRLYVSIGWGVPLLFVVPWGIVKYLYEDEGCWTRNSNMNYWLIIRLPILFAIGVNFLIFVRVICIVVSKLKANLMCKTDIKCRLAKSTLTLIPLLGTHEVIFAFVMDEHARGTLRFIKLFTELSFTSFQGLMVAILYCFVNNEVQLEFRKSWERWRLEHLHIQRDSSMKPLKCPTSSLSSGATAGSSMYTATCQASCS
Experiment: qHTS of GLP-1 Receptor Inverse Agonists (Inhibition Mode); also: nearly all actives have a fitted effect of over 55% in size
Settings: HEK293 GLP-1R CRE-luciferase, luminescence, 24 h; Potency: GLP-1R form is constitutively active unless noted; activity change, negative = inhibition: at 38.3 µM (top of the series) unless noted
Outline: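 qHTS in 1536-well format: reporter HEK293 cells expressing constitutive GLP-1R activity in DMEM + 10% Nu serum, 24 hr with compounds at 37 deg C, luminescence read after 12 min with detection reagent.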
% is scaled to controls: 0 for no effect and ±100 for the full control effect; potency is read from the fitted curve at half-maximal effect; tags tell the direction and shape of the fitted curve.

Q: `CN(C)CC/C=C1/c2ccccc2Sc2ccc(Cl)cc21` was tested. Which Potency did it give?
A: The Potency was inconclusive: 10 µM [inhibitor, partial curve, poor fit] and inconclusive: 15.8 µM [inhibitor, single point].

Q: With `CCOC(=O)C1=C(NC(=S)NC(=O)c2ccccc2)c2ccccc2CC12CCCC2` as the compound, how does the Potency read?
A: The Potency was inconclusive: 3.98 µM [inhibitor, partial curve, poor fit].

Q: Which “activity change, negative = inhibition” value does the source give for `COCCCN1CCN(c2nnc3n2-c2sc(Br)cc2C(c2ccccc2Cl)=NC3)CC1` here?
A: Its value is inactive: 0%.

Q: For `O=C(c1ccc(Cl)cc1)c1cn(Cc2ccccc2)c2cc3c(cc2c1=O)OCCO3`, which Potency is on record?
A: Its Potency is inconclusive: 28.2 µM [inhibitor, single point].

Q: With `CCOC(=O)[C@]12Cc3cc(OC)ccc3[C@H]1N(C)C(=O)c1cc(OC)ccc12` as the compound, how does the Potency read?
A: Its Potency is inconclusive: 10 µM [inhibitor, partial curve, poor fit].

Q: Which Potency does the source give for `CC(=O)[C@H]1CC[C@H]2[C@@H]3CCC4=CC(=O)CC[C@]4(C)[C@H]3CC[C@]12C` here?
A: Its Potency is inconclusive: 25.1 µM [inhibitor, single point].

Q: Which Potency does the source give for `Cn1c(O)c(/C=N/Nc2ccccc2)c(=O)n(C)c1=O` here?
A: The Potency was active: 10 µM [setting not given].

Q: `CC(=O)N1CCN(c2ccc(OC[C@H]3CO[C@](Cn4ccnc4)(c4ccc(Cl)cc4Cl)O3)cc2)CC1` was tested. Which Potency did it give?
A: The Potency was inconclusive: 17.8 µM [inhibitor, single point].

Q: Which Potency does the source give for `O=C(C1CCN(S(=O)(=O)c2ccc(Br)s2)CC1)N1CCN(c2cccc(C(F)(F)F)c2)CC1` here?
A: The Potency was inconclusive: 28.2 µM [inhibitor, single point].

Q: For `CC1CN=C(Nc2ccc(F)c(Cl)c2)S1` (configuration not stated), which Potency is on record?
A: Its Potency is inconclusive: 10 µM [inhibitor, partial curve, poor fit].

Q: How did the Potency turn out when `CCOP(=O)(OCC)Oc1cc(C)c(N(C)C)c(C)c1` was run?
A: Its Potency is inconclusive: 10 µM [inhibitor, partial curve, poor fit].

Q: With `CC(C)CN1CCN(Cc2ccc(C(F)(F)F)cc2)CC1CCO` (configuration not stated) as the compound, how does the Potency read?
A: The Potency was inconclusive: 31.6 µM [inhibitor, single point].

Q: Which Potency does the source give for `COC(=O)C1=C(c2cc3ccccc3o2)C[C@@H]2CC[C@H]1N2C(=O)NCc1cccc2ccccc12` here?
A: The Potency was inconclusive: 6.31 µM [inhibitor, partial curve, poor fit].

Q: Which Potency does the source give for `NCCc1cc(O)c(O)cc1O` here?
A: Its Potency is “inactive”.

Q: With `CCOP(=S)(OCC)N1CCOCCOCCN(P(=S)(OCC)OCC)CCOCCOCC1` as the compound, how does the Potency read?
A: The Potency was inconclusive: 7.94 µM [inhibitor, partial curve, poor fit].

Q: For `Cc1ccc(-c2nc3ccccc3c(=O)n2-c2nccs2)cc1`, which “activity change, negative = inhibition” value is on record?
A: The value was inactive: -4.61%.

Q: Which Potency does the source give for `Fc1ccc(N2CCN(Cc3cc4c(cc3Br)OCO4)CC2)cc1` here?
A: Its Potency is inconclusive: 8.91 µM [inhibitor, partial curve, poor fit].

Q: `CCOP(=O)(OCC)c1nc(-c2cccc3ccccc23)oc1N1CCCCC1` was tested. Which Potency did it give?
A: Its Potency is inconclusive: 8.91 µM [inhibitor, partial curve, poor fit].

Q: How did the Potency turn out when `CCC(C)/C=C(C)/C=C/C1=CC2=C(Cl)C(=O)C(C)(OC(C)=O)C(=O)C2=CO1` (configuration not stated) was run?
A: The Potency was inconclusive: 7.08 µM [inhibitor, partial curve, poor fit].

Q: `Fc1ccc(-c2nc3c(-c4ccc(F)cc4)cnn3cc2CCN2CCOCC2)cc1` was tested. Which Potency did it give?
A: The Potency was inconclusive: 12.6 µM [inhibitor, single point].

Q: For `CN1CCN(c2ncnc3ccc(Br)cc23)CC1`, which Potency is on record?
A: The Potency was inconclusive: 2.51 µM [inhibitor, full curve].

Q: `CN1C(=O)C(Cc2ccccc2)C(=O)N(C)C1=O` was tested. Which “activity change, negative = inhibition” value did it give?
A: Its value is inactive: 10.3%.

Q: How did the Potency turn out when `COc1ccc(CCNC(=O)N2c3ccccc3Sc3ccccc32)cc1` was run?
A: Its Potency is active: 7.94 µM.

Q: With `Cc1ccc(N/N=C/C=C/c2ccco2)cc1` as the compound, how does the Potency read?
A: Its Potency is inconclusive: 7.08 µM [inhibitor, partial curve, poor fit].

Q: `Cc1sc(-n2c(C)cc(C=C3C(=O)NC(=O)NC3=O)c2C)c(C#N)c1C` was tested. Which Potency did it give?
A: Its Potency is inconclusive: 6.31 µM [inhibitor, partial curve].

Q: Which Potency does the source give for `CCc1ccc(NC(=O)CN2C(=O)C3(SCC(=O)N3c3ccc(F)c(F)c3)c3ccccc32)cc1` (configuration not stated) here?
A: Its Potency is inconclusive: 28.2 µM [inhibitor, single point].

Q: With `COC(=O)Nc1nc2ccccc2[nH]1` as the compound, how does the “activity change, negative = inhibition” value read?
A: The value was inactive: 1.3%.

Q: How did the “activity change, negative = inhibition” value turn out when `O=C(N/N=C/c1c(O)n(Cc2ccco2)c(=O)[nH]c1=O)c1ccccc1O` was run?
A: The value was inactive: 1.66%.

Q: With `Cc1ccc(NC2=NCCCS2)c(C)c1C` as the compound, how does the Potency read?
A: The Potency was inconclusive: 28.2 µM [inhibitor, single point].

Q: `CN1CCN(c2ccc([N+](=O)[O-])c3no[n+]([O-])c23)CC1` was tested. Which activity change, negative = inhibition did it give?
A: Its activity change, negative = inhibition is inconclusive: -98.4% [inhibitor] [at 38.3 µM, GLP-1R form is constitutively active].

Q: Which Potency does the source give for `C[C@H]1COC(=O)[C@H](Cc2ccc(F)cc2)CC/C=C/C[C@@H](CC(=O)N(CCO)Cc2ccccc2)C(=O)N1` here?
A: The Potency was inconclusive: 10 µM [inhibitor, single point].

Q: `CCN(CC)C(=O)c1ccc(NC(=O)c2cccc(S(=O)(=O)N3CCN(Cc4ccccc4)CC3)c2)cc1` was tested. Which Potency did it give?
A: The Potency was inconclusive: 10 µM [inhibitor, partial curve, poor fit].

Q: `Clc1cccc(N2CCNCC2)c1` was tested. Which “activity change, negative = inhibition” value did it give?
A: The value was inactive: -29.3%.

Q: `COC(=O)C1=C(c2cc3ccccc3o2)C[C@@H]2CC[C@H]1N2C(=O)NCc1ccccc1` was tested. Which Potency did it give?
A: Its Potency is inconclusive: 12.6 µM [inhibitor, single point].

Q: With `c1ccc(CN2Cc3ccccc3-n3nncc3C2)nc1` as the compound, how does the “activity change, negative = inhibition” value read?
A: Its value is inactive: 11.7%.

Q: For `CCOC(=O)c1c(C)n(Cc2ccccc2)c2ccc(OCC(O)Cn3nc(C)cc3C)cc12` (configuration not stated), which Potency is on record?
A: Its Potency is inconclusive: 11.2 µM [inhibitor, partial curve, poor fit].

Q: Which Potency does the source give for `CCN(CC)C(=O)Oc1ccc2cc(Br)ccc2c1` here?
A: Its Potency is inconclusive: 28.2 µM [inhibitor, single point].

Q: Which Potency does the source give for `CC(C)Oc1cc(-n2c(=S)[nH]c3ccccc3c2=O)c(Cl)cc1Cl` here?
A: The Potency was inconclusive: 12.6 µM [inhibitor, single point].

Q: For `CCOc1ccc(-c2nc(CSCC(=O)NCCc3ccc(OCC)c(OCC)c3)c(C)o2)cc1`, which Potency is on record?
A: Its Potency is inconclusive: 8.91 µM [inhibitor, partial curve, poor fit].

Q: Which Potency does the source give for `CCCNC(=O)C1(C)CCN(Cc2ccc3ccccc3c2Br)C1` (configuration not stated) here?
A: The Potency was inconclusive: 28.2 µM [inhibitor, single point].

Q: Which Potency does the source give for `C[C@]12CC[C@H](O)C[C@H]1CC[C@@H]1C2CC[C@]2(C)[C@@H](C3=CC(=O)OC3)[C@@H](O)C[C@]12O` (some centres not stated) here?
A: The Potency was inconclusive: 5.01 µM [inhibitor, full curve, poor fit].

Q: `Clc1ccc(CSC(Cn2ccnc2)c2ccc(Cl)cc2Cl)cc1` (configuration not stated) was tested. Which Potency did it give?
A: The Potency was inconclusive: 17.8 µM [inhibitor, partial curve, poor fit].

Q: With `CC(C)[C@H](CN(N=O)[C@@H](Cc1ccccc1)CN(C)N=O)N(CCc1ccccc1)N=O` as the compound, how does the Potency read?
A: The Potency was inconclusive: 28.2 µM [inhibitor, single point].

Q: `O=C1CN=C(c2ccccc2F)c2cc(Cl)ccc2N1` was tested. Which “activity change, negative = inhibition” value did it give?
A: The value was inactive: 4.67%.

Q: For `O=P(Nc1cccnc1)(Oc1ccccc1)Oc1ccccc1`, which “activity change, negative = inhibition” value is on record?
A: Its value is inactive: -6.11%.

Q: For `CC1(C)CN=C(Nc2nc3ccccc3s2)S1`, which Potency is on record?
A: The Potency was inconclusive: 28.2 µM [inhibitor, single point].

Q: `CCN(CC)S(=O)(=O)c1cc(NC(=O)C(C)N2CC=C(c3ccccc3)CC2)ccc1C` (configuration not stated) was tested. Which Potency did it give?
A: The Potency was inconclusive: 14.1 µM [inhibitor, partial curve, poor fit].

Q: `CCCC1(CC(C)C)C(=O)NC(=S)NC1=O` was tested. Which “activity change, negative = inhibition” value did it give?
A: Its value is inactive: 13.8%.

Q: With `CN(C)C(=O)Oc1ccc2c(c1)O/C(=C\c1ccc(Cl)cc1)C2=O` as the compound, how does the “activity change, negative = inhibition” value read?
A: The value was inactive: -3.02%.

Q: With `COc1ccccc1-n1c(Cc2ccccc2)nc2ccccc2c1=O` as the compound, how does the Potency read?
A: Its Potency is inconclusive: 28.2 µM [inhibitor, single point].

Q: How did the Potency turn out when `O=C1NCN(c2ccccc2)C12CCN(C(CCc1ccccc1)c1nnnn1Cc1ccccc1)CC2` (configuration not stated) was run?
A: The Potency was inconclusive: 28.2 µM [inhibitor, single point].

Q: With `CC(C)c1ccc(NC(=O)C2CCN(S(=O)(=O)c3ccc(Br)s3)CC2)cc1` as the compound, how does the Potency read?
A: Its Potency is inconclusive: 1.58 µM [inhibitor, full curve, poor fit].

Q: How did the Potency turn out when `O=C(NCC1=C(c2cccc3ccccc23)C[C@@H]2CC[C@H]1N2Cc1ccco1)c1ccncc1` was run?
A: The Potency was inconclusive: 31.6 µM [inhibitor, single point].

Q: With `Cc1sc2c(c1C)C(c1cccs1)=NCC(=O)N2CC(=O)NCc1cccs1` as the compound, how does the Potency read?
A: The Potency was inconclusive: 15.8 µM [inhibitor, single point].

Q: With `COc1ccccc1N1CCN(Cc2cc(C)c(C)cc2O)CC1` as the compound, how does the Potency read?
A: The Potency was inconclusive: 11.2 µM [inhibitor, partial curve, poor fit].

Q: `CN(C)c1ccc(/C=C2/C(=O)NC(=O)N(CCc3ccc(F)cc3)C2=O)cc1` was tested. Which “activity change, negative = inhibition” value did it give?
A: Its value is inactive: 14.3%.

Q: `COc1ccc(SCC2CN(C)CCC2c2ccc(F)cc2)cc1` (configuration not stated) was tested. Which Potency did it give?
A: Its Potency is inconclusive: 22.4 µM [inhibitor, partial curve, poor fit].

Q: With `COC(=O)C1=C(c2ccc(-c3ccccc3)c(F)c2)C[C@@H]2CC[C@H]1N2C(=O)NCCc1ccccc1` as the compound, how does the Potency read?
A: Its Potency is inconclusive: 11.2 µM [inhibitor, partial curve, poor fit].

Q: With `COc1ccc(CCNCc2c(OC)ccc3ccccc23)cc1` as the compound, how does the Potency read?
A: Its Potency is inconclusive: 10 µM [inhibitor, single point].

Q: Which Potency does the source give for `CC(=O)Nc1cccc(-c2ccnc3c2CC(C(=O)NCc2ccco2)O3)c1` (configuration not stated) here?
A: Its Potency is inconclusive: 1.41 µM [inhibitor, full curve, poor fit].

Q: `COc1cccc(NC(=O)CCc2nc(-c3ccc(C(C)(C)C)cc3)no2)c1` was tested. Which Potency did it give?
A: Its Potency is inconclusive: 14.1 µM [inhibitor, partial curve, poor fit].

Q: With `c1ccc2nc(N3CCNCC3)ccc2c1` as the compound, how does the Potency read?
A: The Potency was inconclusive: 6.31 µM [inhibitor, partial curve, poor fit] and inconclusive: 10 µM [inhibitor, partial curve, poor fit].
